From a collection of fitness landscapes (doi:10.1016/j.celrep.2020.107928)
Whole data set: some 81,000 sequences, median “one-hybrid fitness for binding parS DNA” near -0.17, cut for the highest 2% near 0.51. The list shows a part of the results.

B1: Caulobacter ParB omega fusion; a variant is named by its letters at X, in order, B8GW30 (parent)
chain: MESVVVGEPGMSEGRRGLGRGLSALLGEVDAAPAQAPGEQLGGSREAPIEILQRNPDQPRRTFREEDLEDLSNSIREKGVLQPILVRPSPDTAGEYQIVAGERAWRAAQRAGLKTVPIMVRELDDLAVLEIGIIENVQRADLNVLEEALSYKVLMEKFERTQENIAQTIGKSXSHVANXMRLLXLPDEVQSYLVSGELTAXHARAIAAAADPVALAKQIIEGGLSVRETEALARKAPNLSAGKSKGGRPPRVKDTDTQALESDLSSVLGLDVSIDHRGSTGTLTITYATLEQLDDLCNRLTRGI

Variants of: B1
Assay: one-hybrid fitness for binding parS DNA (scaled: cognate 1, non-cognate 0); higher = stronger binding
Settings: with parS DNA site
Summary of the method: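 In E. coli USO, a HIS3 reporter with its site placed 19 bp from the promoter was used to select Caulobacter ParB variants randomised at four specificity codons. Growth lasted 48 hours at 37°C on histidine-free M9 containing 0.1 mM IPTG and 5 mM 3-AT. Fitness was taken as the log change in variant-to-wild-type read ratio from Illumina sequencing of pre- and post-selection plasmids, rescaled between the non-cognate and cognate sites.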

one-hybrid fitness for binding parS DNA, 0.854:
RHST

one-hybrid fitness for binding parS DNA, 0.266:
RTYH

one-hybrid fitness for binding parS DNA, 0.429:
KWKS
RTAN

one-hybrid fitness for binding parS DNA, 0.74:
RTKT

one-hybrid fitness for binding parS DNA, 0.275:
RWHY

one-hybrid fitness for binding parS DNA, 0.917:
RNKC

one-hybrid fitness for binding parS DNA, 0.498:
RNET

one-hybrid fitness for binding parS DNA, 0.665:
RWST

one-hybrid fitness for binding parS DNA, 0.989:
RAWG

one-hybrid fitness for binding parS DNA, 0.973:
RHQG

one-hybrid fitness for binding parS DNA, ≤ 0.2:
GHKE
IKFI
TGYG
PCWV
DIAF
TGNF
NHIS
IRAA
PHPA
DAPF
KVAT
HSVT
HALK
ECYG
HKAV
QKKE
ENPT
QCNI
NNKV
VSGV
AHRE
GSKT
SPIG
NDYL
ARPG
NSIT
VRSL
EAIR
PQMS
FNYT
FRPA
VRTY
QLSS
SRHD
NEDR
QLIF
KATG
WDAM
QDCS
HEIS
GVGE
FESS
NTHA
WYQR
TSED
TWLN
RSHR
AEKA
LTWN
DTMA
PLVF
CAIG
MMSR
LEMC
WREL
SLLF
HLMT
DMSK
WRQA
KTMC
FAYC
SPAT
ASKC
PSDI
PMSP
HSRH
ETKC
EHLS
EISP
QVND
FMAG
CGRY
LAVW
QILV
FNKS
SYYY
TAGD
RGSW
GFHT
AMDG
EVAF
MADY
HQWR
EMSI
PEQW
DFQC
GPHA
SATI
QGRR
TQNY
RQAI
AHRR
NYFR
TPCL
YLMG
GMRR
VWGF
QNKR
RDPC
QKYN
GSPK
SHNN
QILG
QGTD
DERH
QHYC
MPKV
GTFT
WPVW
RQII
LCKC
QMLR
HYDS
PHRC
ATHC
DALV
NYKC
AIVN
VWTM
NMFK
FIHC
TCMV
PNWP
PSQS
MNGR
LCNI
IGPE
THKH
PIYW
GLTY
IPCR
PPSD
AAGS
QREE
RMTR
SMLL
FNHC
PTLM
CVFG
RYVI
LQTN
FAKT
LSGI
MLKA
TSNV
CLCT
HAHE
QAPL
ATFH
NIHF
HIYR
YPCW
PTNN
HKRW
SQAH
QQGM
SQWS
LRAT
ATES
TYIV
ADIF
ESVL
TPPW
MDDQ
MRCT
CRAS
QTFN
CAAN
TCDD
QYPA
RKVE
RGDR
HYEM
LTTI
MIWC
TTNF
CRRT
QNNS
IGDG
QKFV
HCNW
AVQY
LMSA
TAMS
ATNP
LLDM
KWNY
QRDY
QMNW
HRKH
DETS
QVLS
MRMT
AMKY
VVFF
LRPR
MLEM
SEPR
DRWH
EVPR
WKGR
QKME
RIFV
CYMV
HIVT
TCPC
GGDG
CPSF
AFTK
EGSR
QCRG
ILPM
VPIC
WKCC
PTPS
DENS
IHNA
NRPD
LDAM
SRIV
DMHC
TSWY
KIMR
QCAT
NELG
TIEG
VWPR
QLRM
WAPT
ANWM
VMVD
DLNT
CFRK
YMLW
LTGL
AGIS
QAIQ
HIET
VVRH
DMAD
ARLF
RADQ
AHMT
QNPR
EAMC
ALFT
PQLG
WDTV
SAWY
TSWV
YTYV
RQCI
DNHT
RDNS
PGID
GPPG
TMSN
TLGI
HDPK
QSNR
SCNH
SAEP
IAVT
MKPS
TIWS
QINK
YYRC
LYPC
PYPT
LNSI
FLAD
CLFK
NWVW
QELC
SNTW
DRIS
PRRA
RRSF
GCLP
HWNV
QGDL
TGVG
AYWY
DYKS
QFHR
VVFG
GYMR
CHQR
YMFT
LTMY
IVRK
EQTL

one-hybrid fitness for binding parS DNA, 0.617:
RIRY

one-hybrid fitness for binding parS DNA, 0.259:
RTYF

one-hybrid fitness for binding parS DNA, 0.215:
RAND
